# In all, about 91,000 compounds went through this assay and about 290 (0.32%) were called active. Inconclusive means that the source gave no clear call. Such entries were picked first, then a sample of the others. The call rests on the fitted dose curve; in most records, active means well fitted inhibition curve with a large enough effect; inconclusive means small, poorly fitted or top-dose-only effect; inactive means no such curve, though single readings can be large or run the other way. Where the call is inconclusive, the potency comes from a doubtful curve fit.
# Target: Single-stranded DNA cytosine deaminase (Homo sapiens) (UniProt Q9GZX7)
# Experiment: Primary qHTS assay for inhibitors of Activation Induced Cytidine Deaminase (AID): AID signal; further: nearly all actives have a fitted effect of over 25% in size
# Conditions: AID deamination FRET fluorescence, UDG-coupled, 4 h; series mostly up to 115 µM
# Potency means the concentration at half of the fitted maximal effect; tags describe the fitted curve by direction and shape.
# Chain of UniProt Q9GZX7 (Q9GZX7 whole entry, looked up): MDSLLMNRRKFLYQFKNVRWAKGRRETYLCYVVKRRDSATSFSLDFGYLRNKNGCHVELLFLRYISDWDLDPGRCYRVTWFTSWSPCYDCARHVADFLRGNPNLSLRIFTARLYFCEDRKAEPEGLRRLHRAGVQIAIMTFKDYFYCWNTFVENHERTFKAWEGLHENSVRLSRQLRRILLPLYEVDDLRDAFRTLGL
row,SMILES,Potency
1,COc1ccc(OCC(=O)Nc2ccc(O)c(-c3nc4ccccc4s3)c2)cc1,"inconclusive: 14.1 µM [inhibitor, partial curve, poor fit]"
2,O=C(Cc1ccc(F)cc1)N1CCC(c2nc3c(nnn3Cc3ccc(F)cc3)c(=O)[nH]2)CC1,"inconclusive: 79.4 µM [inhibitor, partial curve, poor fit]"
3,Cc1ccc(CNC(=O)c2nc(-c3ccc(Cl)cc3)n3c2CCCCC3)cc1,"inconclusive: 39.8 µM [inhibitor, single point]"
4,Cc1nnc(SCc2nc(-c3ccc(Cl)cc3)no2)n1-c1ccc(F)cc1,"inconclusive: 50.1 µM [inhibitor, single point]"
5,CCn1c(=O)cc(OCC(=O)NCc2ccccc2Cl)c2ccccc21,"inconclusive: 39.8 µM [inhibitor, single point]"
6,c1ccc(CNCc2cccc(Oc3nnnn3-c3ccccc3)c2)cc1,"inconclusive: 89.1 µM [inhibitor, partial curve, poor fit]"
7,COc1ccc(OC)c(C(C)NC(=O)CCc2ncc(-c3ccc(F)cc3)o2)c1 (configuration not stated),inactive
8,COc1ccccc1N1CCN(c2ncnc3c2nc2n3CCCC2)CC1,inactive
9,COc1ccc(C)cc1NC(=O)C(=O)NCC1(c2ccccc2)CCCC1,"inconclusive: 28.2 µM [inhibitor, partial curve, poor fit]"
10,O=C(Nc1cccc(C(F)(F)F)c1)c1cn2c3c(cccc3c1=Nc1cccc(C(F)(F)F)c1)CCC2,inactive
11,COc1ccc(-n2c3c(c(=O)[nH]c2=O)CN(C2CCCC2)CN3)cc1Cl,inactive
12,O=C(NC1CCCCC1)c1c[nH]c2ccc(S(=O)(=O)Nc3ccccc3F)cc2c1=O,"inconclusive: 89.1 µM [inhibitor, partial curve, poor fit]"
13,COc1ccc(S(=O)(=O)N(CC(=O)N(C)Cc2ccccc2)c2ccc(Cl)cc2)cc1,"inconclusive: 17.8 µM [inhibitor, full curve, poor fit]"
14,CCn1cc2nc(SCc3ccc(C)cc3)n(CCc3ccccc3)c(=O)c2n1,"inconclusive: 56.2 µM [inhibitor, partial curve, poor fit]"
15,CCC1CN(C(=O)N2CCC(C(=O)NCCC3=CCCCC3)CC2)c2cc(C)ccc2O1 (configuration not stated),"inconclusive: 70.8 µM [inhibitor, partial curve, poor fit]"
16,COc1ccc(CCNC(=O)c2nc(-c3ccc(Cl)cc3)n3c2CCCCC3)c(OC)c1,"inconclusive: 39.8 µM [inhibitor, single point]"
17,Cc1ccc2c(c1)C(c1ccc(F)cc1)N(C(=O)c1ccc(S(=O)(=O)N3CCCCC3)cc1)CC(=O)N2 (configuration not stated),"inconclusive: 2.82 µM [inhibitor, full curve, poor fit]"
18,COc1ccc(-c2csc3ncnc(Nc4cccc(OC)c4)c23)cc1,"inconclusive: 50.1 µM [inhibitor, partial curve, poor fit]"
19,Cc1cccc(/C=C/c2onc(C)c2S(=O)(=O)N2CCC(C(=O)N3CCCCC3)CC2)c1,"inconclusive: 22.4 µM [inhibitor, partial curve, poor fit]"
20,CCCCCCCCc1ccc(-c2ccc(CCCC)cc2)nc1,inactive
21,Cc1ccc(S(=O)(=O)n2nc(-c3ccc(Cl)cc3)nc2NCc2ccc(F)cc2)cc1,"inconclusive: 3.55 µM [inhibitor, full curve, poor fit]"

row,SMILES,Potency
1,COc1cccc(-c2nc(CS(=O)(=O)CC(=O)N3CCN(c4cc(C)ccc4C)CC3)c(C)o2)c1,"inconclusive: 8.91 µM [inhibitor, full curve, poor fit]"
2,CC(C)(C)c1ccc(C(=O)NCCc2csc(-c3ccc(Cl)cc3)n2)cc1,"inconclusive: 79.4 µM [inhibitor, partial curve, poor fit]"
3,CCOC(=O)c1c(-c2ccccc2)nc2ccccc2c1-c1ccccc1,inactive
4,CCOC(=O)C1=C(CN2CCN(c3ccccc3OC)CC2)NC(=O)NC1c1ccccc1 (configuration not stated),"inconclusive: 89.1 µM [inhibitor, single point]"
5,CC(NCc1ccc(C#N)cc1)c1ccc(F)cc1F (configuration not stated),inactive
6,O=C(CC1N=C2c3ccccc3N=C(SCc3ccccc3Cl)N2C1=O)NCCc1ccccc1 (configuration not stated),"inconclusive: 10 µM [inhibitor, full curve, poor fit]"
7,Cc1cc(Nc2cccc(Cl)c2)nc2ccc(NC(=O)c3cncc(Br)c3)cc12,"inconclusive: 2.82 µM [inhibitor, full curve, poor fit]"
8,Oc1ccc(-c2nc(-c3cc4ccccc4o3)cs2)cc1,inactive
9,CCOC(=O)c1noc2ncn(CC(=O)Nc3cccc(C(F)(F)F)c3)c(=O)c12,inactive
10,Cc1ccc(OCC(=O)Nc2ccc3c(c2)nc(CCn2ccccc2=O)n3C)cc1,inactive
11,CCc1ccc(C(=O)c2cn(CC(=O)Nc3cccc(OC)c3)c3cc4c(cc3c2=O)OCO4)cc1,"inconclusive: 28.2 µM [inhibitor, partial curve]"
12,COc1ccc(C)c2sc(N3CCN(C(=O)c4cccc(F)c4)CC3)nc12,"inconclusive: 50.1 µM [inhibitor, partial curve, poor fit]"
13,Cc1ccc(-n2ncc3c(NC(C)c4ccccc4)ncnc32)cc1 (configuration not stated),"inconclusive: 50.1 µM [inhibitor, partial curve]"
14,C=CCNC(=O)C1CCN(Cc2ccc(Cl)cc2)CC1,inactive
15,CCCCOc1ccc(Cn2c(=O)sc3ccccc32)cc1OC,"inconclusive: 50.1 µM [inhibitor, partial curve, poor fit]"
16,C#CCNC(=O)c1ccc2c(c1)NC(=O)CS2,inactive
17,Cc1ccc(NC(=O)Cn2nc(C(F)(F)F)c3c2CCCC3)cc1C,"inconclusive: 100 µM [inhibitor, partial curve, poor fit]"
18,CC1=C(C(=O)OC2CCCC2)C(c2c(Cl)cccc2Cl)CC(=O)N1 (configuration not stated),inactive
19,CCC(=O)N1CCc2cc(S(=O)(=O)NC(C(=O)NCCc3ccc(OC)c(OC)c3)C(C)C)ccc21 (configuration not stated),"inconclusive: 44.7 µM [inhibitor, partial curve, poor fit]"
20,CCCCNC(=O)C1CCC(Cn2c(=O)c3sccc3n(Cc3ccccc3)c2=O)CC1 (configuration not stated),"inconclusive: 89.1 µM [inhibitor, single point]"
21,COc1ccc(-c2nc3ccccc3n3c(-c4cccc(C)c4)c4c(=O)n(C)c(=O)n(C)c4c23)cc1OC,"inconclusive: 39.8 µM [inhibitor, single point]"

row,SMILES,Potency
1,COc1cc(CN(C(=S)NCC(=O)NCc2ccc(Cl)cc2)C2CCCC2)cc(OC)c1OC,inactive
2,C=CCn1c(N2CCN(Cc3cccc4ccccc34)CC2)nc2c1c(=O)[nH]c(=O)n2C,"inconclusive: 56.2 µM [inhibitor, partial curve, poor fit]"
3,CC(C)(C)c1ccc(OCc2nc3ccccc3n2CCOc2ccccc2)cc1,active: 31.6 µM
4,CCOc1ccccc1NC(=O)C1CCN(S(=O)(=O)c2ccc3[nH]c(=O)oc3c2)CC1,"inconclusive: 39.8 µM [inhibitor, single point]"
5,CCOC(=O)c1ccccc1NC(=O)CN(c1cccc(C)c1C)S(=O)(=O)c1ccccc1,"inconclusive: 79.4 µM [inhibitor, single point]"
6,COc1ccccc1CNC(=O)c1cc2c(=O)oc3ccc(C)cc3c2s1,"inconclusive: 79.4 µM [inhibitor, partial curve, poor fit]"
7,Cc1cccc(-c2nc(Nc3ccc(C(=O)O)cc3)c3ccccc3n2)c1,inactive
8,CCC(C(=O)NCCc1ccccc1)n1nc(C)c2sc3ccccc3c2c1=O (configuration not stated),"inconclusive: 56.2 µM [inhibitor, partial curve, poor fit]"
9,Cc1c(C)n(Cc2ccc(F)cc2)c2ccc(C(=O)N3CCN(c4ccc(F)cc4)CC3)cc12,"inconclusive: 35.5 µM [inhibitor, partial curve, poor fit]"
10,CCC12CN3CC(CC)(CN(C1)C3c1ccc(C)cc1)C2=O (configuration not stated),inactive
11,CC1CCCN(c2nc(-c3ccccn3)nc3ccccc23)C1 (configuration not stated),inactive
12,CCc1ccc(N(CC)C(=O)Cn2nc(Cc3cccnc3)c3ccccc3c2=O)cc1,"inconclusive: 100 µM [inhibitor, single point]"
13,CCOC(=O)c1cc(C)n(CC2CCC(C(=O)Nc3ccccc3OC)CC2)c1C (configuration not stated),"inconclusive: 17.8 µM [inhibitor, full curve, poor fit]"
14,CC(=O)c1ccc(NS(=O)(=O)c2c(C)nc3scc(C)n3c2=O)cc1,inactive
15,Cc1nc2nc(NC(=O)c3ccc(C(C)(C)C)cc3)[nH]n2c(=O)c1Cc1ccccc1,"inconclusive: 10 µM [inhibitor, partial curve, poor fit]"
16,Cc1cccc2c1N(Cc1ccccc1OCCC(C)C)C(=O)C2=O,"inconclusive: 56.2 µM [inhibitor, partial curve, poor fit]"
17,CCOc1ccc(/C=C/c2nc(C#N)c(NCc3ccccc3)o2)cc1,"inconclusive: 50.1 µM [inhibitor, partial curve, poor fit]"
18,Cc1ccccc1CNC(=O)C(C)N(c1ccccc1)S(C)(=O)=O (configuration not stated),"inconclusive: 56.2 µM [inhibitor, partial curve, poor fit]"
19,Cc1nn(-c2ccc3nnc(C)n3n2)c2c1C(c1ccccc1Cl)CC(=O)N2 (configuration not stated),"inconclusive: 39.8 µM [inhibitor, partial curve, poor fit]"
20,Cc1oc(-c2cccc(Cl)c2)nc1CS(=O)(=O)CC(=O)NC(C)CCc1ccccc1 (configuration not stated),"inconclusive: 31.6 µM [inhibitor, single point]"
